Measurements as given in paper PMC4336329 (PLoS ONE, 2015).
Hit rate of the full screen: of about 310,000 compounds, about 14,000 (4.5%) showed an effect of 50% or more. Effects have a minus sign here. Some of the results follow.

These molecules were tested against human ether-à-go-go-related gene (hERG) potassium channel (human, UniProt Q12809) (assay: primary screen, population patch clamp on CHO cells stably expressing hERG).
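Further: peak tail current of the secondary pulse compared with the same well before compound.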

human ether-à-go-go-related gene (hERG) potassium channel, sequence (Q12809 whole entry, looked up): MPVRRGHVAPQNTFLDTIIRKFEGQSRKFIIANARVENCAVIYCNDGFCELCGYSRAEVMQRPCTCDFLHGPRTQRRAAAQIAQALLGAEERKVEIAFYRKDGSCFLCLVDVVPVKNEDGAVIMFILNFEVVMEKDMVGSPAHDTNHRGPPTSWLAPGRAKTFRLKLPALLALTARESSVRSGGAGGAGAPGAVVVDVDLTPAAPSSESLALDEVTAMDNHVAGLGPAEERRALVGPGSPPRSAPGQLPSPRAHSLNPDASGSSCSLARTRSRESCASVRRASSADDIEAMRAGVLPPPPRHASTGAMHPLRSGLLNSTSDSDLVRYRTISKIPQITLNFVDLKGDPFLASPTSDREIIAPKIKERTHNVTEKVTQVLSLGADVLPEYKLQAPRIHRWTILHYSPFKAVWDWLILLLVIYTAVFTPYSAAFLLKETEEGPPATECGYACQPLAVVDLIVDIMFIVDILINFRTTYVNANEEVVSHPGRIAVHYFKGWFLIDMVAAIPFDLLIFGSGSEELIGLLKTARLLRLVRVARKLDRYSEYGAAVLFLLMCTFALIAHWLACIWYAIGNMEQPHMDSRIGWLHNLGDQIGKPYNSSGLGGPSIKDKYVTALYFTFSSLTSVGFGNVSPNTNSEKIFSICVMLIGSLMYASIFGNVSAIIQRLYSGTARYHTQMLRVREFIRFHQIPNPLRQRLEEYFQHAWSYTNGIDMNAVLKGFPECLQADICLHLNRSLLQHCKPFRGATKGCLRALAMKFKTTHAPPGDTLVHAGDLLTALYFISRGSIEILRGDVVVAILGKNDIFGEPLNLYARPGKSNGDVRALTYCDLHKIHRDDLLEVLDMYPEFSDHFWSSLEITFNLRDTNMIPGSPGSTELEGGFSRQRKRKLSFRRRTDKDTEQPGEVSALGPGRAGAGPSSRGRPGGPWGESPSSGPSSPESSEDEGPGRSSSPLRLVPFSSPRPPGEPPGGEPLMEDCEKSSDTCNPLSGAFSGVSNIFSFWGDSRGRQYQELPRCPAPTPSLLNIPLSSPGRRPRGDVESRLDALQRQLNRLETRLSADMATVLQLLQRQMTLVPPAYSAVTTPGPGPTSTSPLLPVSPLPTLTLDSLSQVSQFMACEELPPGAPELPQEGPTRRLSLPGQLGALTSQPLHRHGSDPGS

| SMILES | hERG current change (%, negative = inhibition) at 10uM |
| --- | --- |
| CC(NC(=O)CSc1ncccn1)c1ccc(Cl)cc1Cl (stereo not shown) | 60.5% |
| CCOC(=O)c1cnc2c(F)ccc(F)c2c1Sc1ccccc1 | 2.92% |
| COc1ccc(NC(=O)CN(C)Cc2c(F)cccc2Cl)cc1S(=O)(=O)N1CCCCC1 | -0.247% |
| O=c1c2ccccc2c(C=NC2CCN(Cc3ccccc3)CC2)c(O)n1Cc1ccc2c(c1)OCO2 | 1.95% |
| O=S(=O)(c1cccs1)N1CN(Cc2cccs2)c2nc3ccccc3nc21 | -1.51% |
| CC(=O)Nc1ccc(C(O)(C(F)(F)F)C(F)(F)F)cc1 | 4.91% |
| O=C(COc1cccnc1[N+](=O)[O-])Nc1ccc(N2CCOCC2)cc1 | -6.48% |
| CCCCOCC(O)Cn1c(C)nc2ccccc21.O=C(O)C(=O)O (stereo not shown) | 1.95% |
| C=CCN1c2ccccc2[C@]23C[C@@H](C(=O)OC)N(C(=O)c4ccc(Br)cc4)C2=NC(C(=O)OC)=C(C(=O)OC)[C@H]13 | -5.86% |
| CC(C)(C)NC(=O)c1ccc2c(c1)N(CC(=O)N1CCCCC1)C(=O)C(C)(C)O2 | 16.3% |
| Cc1ccc(C(C)C)c(OCC(=O)OCc2c(C)noc2C)c1 | -1.39% |
| CCOC(=O)c1c(-c2ccc(-c3ccccc3)cc2)csc1NC(=O)c1cccc(N2C(=O)CCC2=O)c1 | 17.4% |
| Cc1ccc(C(=O)N(Cc2ccc3c(c2)OCO3)Cc2nc3ccccc3c(=O)[nH]2)cc1 | -24% |
| COc1cccc(CCNCc2ccc(SC)cc2)c1.O=C(O)C(=O)O | -67.7% |
| CSc1ccccc1OCc1cc(C(=O)NCCCc2ccccc2)no1 | 12.9% |
| COC(=O)c1cccc(C(=O)Nc2ccc(C)cc2)n1 | -7.93% |
| O=C(NC1CC1)C1CCN(S(=O)(=O)c2ccc(Cl)cc2)CC1 | -2.36% |
| O=S(=O)(NCCn1ccc2ccccc21)c1ccccc1 | -28.5% |
| CC1CCc2nc(NC(=O)CN3CCN(Cc4ccc5c(c4)OCO5)CC3)sc2C1 (stereo not shown) | -66.7% |
| COC(=O)C1=C(CS(=O)(=O)c2cc(Cl)ccc2OC)NC(=O)NC1c1ccc(O)c(OC)c1 (stereo not shown) | 18.6% |
| CCOc1ccc(CN(C)C(=O)c2ccc(=O)[nH]c2)cc1 | 16.6% |
| Cc1ccc(NC(=O)c2cc3c(s2)CCCC3)cc1S(=O)(=O)Nc1ccccc1Cl | -1.3% |
